Reference: a compilation of properties of binary mixtures (doi:10.1016/j.fluid.2020.112621)
The densities may have been worked out from excess volumes.

Test: xn = mol fraction of the nth substance listed
Settings: 101 kPa

CC(=O)[O-].CCCC[NH2+]CCO + CCCC[n+]1ccn(C)c1.O=S(=O)([N-]S(=O)(=O)C(F)(F)F)C(F)(F)F
mass density [kg/m3]
Settings	x1 = 0.1012	x1 = 0.2257	x1 = 0.3002	x1 = 0.423	x1 = 0.4998	x1 = 0.6018	x1 = 0.6987	x1 = 0.8008	x1 = 0.901	x1 = 1
278.15 K	–	–	–	–	–	–	–	–	–	1028.6
283.15 K	–	1387.2	1362.8	1320.8	1291.7	1249	1204.6	–	1091.9	–
288.15 K	–	1382.6	–	1316.3	1287.2	1244.7	1200.5	–	1088.3	1021.7
293.15 K	–	1378	1354.7	1311.9	1282.9	1240.5	1196.4	1143.5	1084.7	1018.3
298.15 K	–	–	1350.4	1307.5	1278.6	1236.3	1192.2	–	–	–
303.15 K	–	1368.8	1345.9	1303.1	–	1232.1	1188.2	–	1077.2	1011.2
308.15 K	1399	1364.2	–	1298.7	1270	1227.9	1184.1	1131.6	1073.4	–
313.15 K	1395	1359.5	1336.9	1294.3	–	1223.8	–	–	–	–
318.15 K	1390.7	–	1332.3	1289.9	1261.4	1219.6	–	1123.9	–	1000.4
323.15 K	1386.1	1350.3	1327.7	1285.5	1257	1215.4	–	1120	1062.2	997.1
328.15 K	1381.5	–	1323.2	1281	1252.6	–	1167.9	1116.1	–	993.4
333.15 K	1376.8	1341	1318.6	1276.5	1248.2	1206.9	1163.8	1112.1	1054.7	989.8
338.15 K	1372.1	1336.3	1313.9	1272.1	1243.8	1202.5	–	1108.1	1050.9	986.1
343.15 K	1367.4	–	1309.3	1267.6	–	1198.2	1155.4	1104.1	–	–
348.15 K	1362.7	1327	1304.7	–	1234.9	1194	1151.2	1100	1043.1	978.7
353.15 K	1358	1322.3	1300.1	1258.5	1230.4	1189.6	1146.9	1095.9	–	–
358.15 K	1353.3	1317.6	–	–	–	1185.3	1142.7	1091.8	1035.2	971
363.15 K	1348.6	1312.9	1290.8	–	1221.4	1180.9	1138.4	1087.6	1031.1	–
368.15 K	1343.9	1308.3	1286.1	1244.8	1216.9	1176.4	1134	–	1027.1	–
373.15 K	1339.3	1303.6	–	–	–	1172	1129.7	1079.2	1023	–
